# Laboratory results reported in PubChem BioAssay AID2675 (National Center for Advancing Translational Sciences (NCATS), 2010).
# Out of some 280,000 compounds screened, about 100 (0.036%) were called active. Inconclusive means that the source gave no clear call. Such entries were picked first, then a sample of the others. Calls come from the whole dose curve; as a rule, active = well fitted inhibition curve with a large enough effect in the signal ratio, with a control signal flat (not every such curve was filed as active); inconclusive = small, poorly fitted or top-dose-only effect, or effect the other way, or a change in a side signal; inactive = no such curve, though single readings can be large or run the other way; the % refers to the signal ratio. Where the call is inconclusive, the potency comes from a doubtful curve fit. A note “side channel” means that the fit belongs to a control or component signal, not to the main read-out.
# Target: Muscleblind-like protein 1 (Homo sapiens) (UniProt Q9NR56)
# UniProt Q9NR56, sequence (Q9NR56 whole entry, looked up): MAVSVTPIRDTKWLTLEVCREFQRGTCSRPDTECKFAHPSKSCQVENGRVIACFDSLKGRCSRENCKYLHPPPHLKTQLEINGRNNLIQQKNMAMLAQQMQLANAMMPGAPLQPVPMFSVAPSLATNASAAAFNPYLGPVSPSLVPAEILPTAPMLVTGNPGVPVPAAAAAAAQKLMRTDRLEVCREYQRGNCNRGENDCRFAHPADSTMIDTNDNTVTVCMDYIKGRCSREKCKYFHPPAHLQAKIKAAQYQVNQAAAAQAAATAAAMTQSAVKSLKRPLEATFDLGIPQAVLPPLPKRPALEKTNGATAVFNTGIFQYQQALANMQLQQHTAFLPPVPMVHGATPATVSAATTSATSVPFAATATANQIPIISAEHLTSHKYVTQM
# Assay: qHTS Assay for Inhibitors of MBNL1-poly(CUG) RNA binding
# Conditions: TR-FRET MBNL1-His/biotin-(CUG)12 binding, 665/545 ratio; activity change, negative = inhibition: at 57.5 µM (top of the series)
# How it was run: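 Compounds (final 92 nM to 58 uM) are added to His-tagged MBNL1 and biotin-(CUG)12, then terbium anti-His antibody and streptavidin-XL665 (5 nM final). After 60 min at room temperature, the 665/545 nm ratio is read.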
# % is set by controls: 0 for no effect and ±100 for the full control effect; potency is the fitted concentration of half-maximal effect; tags give direction and shape of the fitted curve or compound fluorescence and quenching.
Compound,Potency,"activity change, negative = inhibition"
CCCCN(C)Cc1c(O)ccc2c(-c3ccccc3)cc(=O)oc12,"inconclusive: 15.8 µM [quencher, partial curve]",–
CCOC(=O)/C(C#N)=C/c1c(N2CCN(C)CC2)nc2c(C)cccn2c1=O,"inconclusive: 17.8 µM [quencher, partial curve]",–
COc1ccc(N=NC2=C(O)CC(C)(C)CC2=O)cc1,"inconclusive: 7.94 µM [quencher, side channel, partial curve]",–
CCCCCCn1c(N2CCN(c3ccccc3)CC2)nc2c1c(=O)[nH]c(=O)n2C,"inconclusive: 50.1 µM [inhibitor, single point]",–
Cc1ccc(-n2c3nc(=O)n(C)c(=O)c-3cc3ccccc32)cc1,"inconclusive: 1.58 µM [quencher, side channel, partial curve]",–
CC1(C)Cc2c(C#N)c(SCC(=O)c3ccccc3)nc(N3CCOCC3)c2CO1,"inconclusive: 39.8 µM [fluorescent, side channel, single point]",–
O=C1CC(c2ccccc2)CN1Cc1ccccc1 (stereo unspecified),"inconclusive: 8.91 µM [quencher, side channel, partial curve]",–
O=c1[nH]c(Cc2ccccn2)nc2scc(-c3ccccc3Cl)c12,"inconclusive: 39.8 µM [quencher, partial curve]",–
CCC1Nc2ccccc2-c2nnc(SC)nc2O1 (stereo unspecified),"inconclusive: 3.55 µM [quencher, side channel, full curve]",–
S=C(N=Nc1ccccc1)NNc1ccccc1,"inconclusive: 35.5 µM [quencher, side channel, single point]",–
NC(=O)c1sc2nc(-c3ccccc3)c3c(c2c1N)CCCC3,"inconclusive: 31.6 µM [quencher, side channel, single point]",–
CCOC(=O)/C(=C\c1ccc([N+](=O)[O-])o1)NC(=O)c1ccccc1,"inconclusive: 25.1 µM [quencher, side channel, partial curve]",–
Cc1ccc(OCc2nc(-c3cccs3)no2)c([N+](=O)[O-])c1,"inconclusive: 31.6 µM [quencher, side channel, single point]",–
CCN(CC)CCn1c2ccccc2c2nc3ccc([N+](=O)[O-])cc3cc21,"inconclusive: 1.78 µM [quencher, side channel, partial curve, poor fit]",–
O=S(=O)(c1ccc(N2CCC(c3ccc(Cl)cc3)=N2)cc1)N(CCO)CCO,"inconclusive: 15.8 µM [quencher, side channel, partial curve]",–
COc1ccc(OCc2cc(C(=O)NC3CCOC(C)(C)C3)no2)c2ccccc12 (stereo unspecified),"inconclusive: 39.8 µM [quencher, side channel, single point]",–
Cc1csc(=O)n1CC(=O)OCC(=O)Nc1cc(Cl)ccc1[N+](=O)[O-],"inconclusive: 14.1 µM [quencher, side channel, partial curve]",–
COC(=O)c1cccc2c1-c1ccccc1/C2=N\NC(N)=O,"inconclusive: 10 µM [quencher, side channel, partial curve]",–
NC(=O)c1cc2ccccc2o/c1=N/NC(=O)c1cccc(F)c1,"inconclusive: 3.16 µM [quencher, side channel, partial curve]",–
O=[N+]([O-])c1cc(/C=N/N2CCCCC2)ccc1Cl,"inconclusive: 22.4 µM [quencher, side channel, partial curve]",–
O=C(/C=C/c1ccc(Br)o1)NCc1ccccc1,inactive,–

Compound,Potency,"activity change, negative = inhibition"
Nc1nc(-c2ccc(-n3nncc3-c3ccco3)cc2)cs1,"inconclusive: 12.6 µM [quencher, side channel, partial curve]",–
COc1ccc(NC(=O)C2CCN(C(=O)Cc3ccccc3)CC2)cc1OC,inactive,–
COCCOC(=O)/C=C1/NC(=O)CS1,"inconclusive: 0.708 µM [quencher, side channel, partial curve, poor fit]",–
COC(=O)CSCC(=O)Nc1cc2c(cc1C(C)=O)OCO2,"inconclusive: 14.1 µM [quencher, side channel, partial curve]",–
CC(C)CN1C(=O)/C(=C/c2cccs2)NC1=S,"inconclusive: 39.8 µM [quencher, side channel, single point]",–
CC1CCN(c2ccc([N+](=O)[O-])c(SCCO)c2)CC1,"inconclusive: 7.94 µM [quencher, side channel, partial curve]",–
COc1ccc(/C=C2\CC/C(=C\c3ccc(OC)c(OC)c3)C2=O)cc1OC,"inconclusive: 14.1 µM [quencher, side channel, partial curve]",–
Cc1cc(C)nc(NS(=O)(=O)c2ccc(N=Cc3c(C)[nH]n(-c4ccccc4)c3=O)cc2)n1,inactive,–
Cc1ccc(O)c(CP(=O)(c2ccccc2)c2ccccc2)c1,inactive,–
COc1ccc(/C(O)=C2/C(=O)C(=O)N(CCN(C)C)C2c2ccccc2)cc1Cl (stereo unspecified),"inconclusive: 22.4 µM [quencher, side channel, single point]",–
COc1ccc(-c2nnc3ccc(SCC(=O)N4CCCCCC4)nn23)cc1OC,"inconclusive: 0.891 µM [quencher, side channel, full curve, poor fit]",–
CN=CC1=C(O)c2ccccc2C1=O,inactive,–
CSc1ccc(CN(C)CC(=O)Nc2ccc(C)cc2Br)cc1,"inconclusive: 7.08 µM [quencher, side channel, single point]",–
O=C(CSc1nnc(-c2cccnc2)n1CCN1CCCCC1)Nc1cccc(Cl)c1,"inconclusive: 0.447 µM [fluorescent, side channel, full curve, poor fit]",–
O=C(CN1CC(c2ccccc2)CC1=O)N/N=C/c1cc(Br)ccc1O (stereo unspecified),inactive,–
CN(C)CCN1C(=O)c2oc3ccc(F)cc3c(=O)c2C1c1ccncc1 (stereo unspecified),"inconclusive: 3.16 µM [quencher, side channel, full curve]",–
O=C(c1ccc(Oc2ccc([N+](=O)[O-])cc2)cc1)N1CCCCCC1,"inconclusive: 14.1 µM [quencher, side channel, partial curve]",–
CCCCNC(=O)CO/N=C(\C)c1cc2ccccc2o1,"inconclusive: 39.8 µM [quencher, side channel, single point]",–
Fc1ccccc1-n1c(-c2ccc3ccccc3n2)n[nH]c1=S,inactive,–
O=C1Nc2ccc([N+](=O)[O-])cc2OC1CCN1CCCC1 (stereo unspecified),"inconclusive: 20 µM [quencher, partial curve]",–
Nc1ccc2c(c1)C(=O)N(c1cccc3ccccc13)C2=O,"inconclusive: 15.8 µM [quencher, side channel, partial curve]",–

Compound,Potency,"activity change, negative = inhibition"
C#CCOCCOCCOCCNc1nc(N2CCN(C(=O)Cn3cc(CC(C)O)nn3)CC2)nc(N2CCN(C(=O)[C@H](C)n3cc(CCCN=C(N)N)nn3)CC2)n1 (stereo partly specified),inactive,–
COC(=O)c1ccc2c(c1)N(Cc1ccccc1F)C(=O)c1ccccc1S2=O (stereo unspecified),–,inconclusive: -19.3% [phenotype inactive]
O=C1c2ccc(-c3ccc4c(c3)C(=O)N(CCCO)C4=O)cc2C(=O)N1CCCO,"inconclusive: 1.78 µM [quencher, full curve]",–
Cc1ccc2cc(CCNC(=O)c3cccc([N+](=O)[O-])c3)c(=O)[nH]c2c1,"inconclusive: 2.82 µM [quencher, side channel, full curve, poor fit]",–
COc1ccc(N(CC(=O)NCc2ccccc2)S(=O)(=O)c2c(C)nn(C)c2C)cc1,"inconclusive: 0.158 µM [quencher, side channel, full curve, poor fit]",–
COc1ccc(-n2[nH]c(C)cc2=O)cc1,inactive,–
CNC(=O)Nc1ccc2snnc2c1,"inconclusive: 22.4 µM [quencher, side channel, single point]",–
N#Cc1cc2ccccc2nc1SCC(=O)Nc1ccccc1N1CCOCC1,inactive,–
CN(C)C(=O)Cn1c(SCC(=O)Nc2ccc3c(c2)OCO3)nc2ccccc21,inactive,–
CC1CCN(CCCNC(=O)c2cc3c(s2)-c2ccccc2OC3)CC1,"inconclusive: 28.2 µM [quencher, partial curve]",–
CN(C1=C(N2CCCCC2)C(=O)c2ccccc2C1=O)c1ccccc1,"inconclusive: 25.1 µM [quencher, side channel, partial curve]",–
NC(=O)c1c(NC(=O)c2ccc([N+](=O)[O-])o2)sc2c1CCCC2,"inconclusive: 2.51 µM [quencher, side channel, partial curve]",–
CN(Cc1ccccc1)c1ccc([N+](=O)[O-])cc1C(=O)O,"inconclusive: 20 µM [quencher, side channel, partial curve]",–
COc1ccc2c(c1)CCc1c(C(=O)NC3CCCCC3)noc1-2,inactive,–
Cc1ccc(-c2cnc(NCc3cc4c(cc3[N+](=O)[O-])OCO4)n2C)cc1C,"inconclusive: 20 µM [inhibitor, single point]",–
Cc1ccc2cc3cc(C(=O)NCCCN4CCCCCC4)oc3nc2c1,"inconclusive: 15.8 µM [quencher, side channel, partial curve]",–
CC1(C)NC(=O)N(CC(O)CN(c2ccccc2)S(=O)(=O)c2ccc([N+](=O)[O-])cc2)C1=O (stereo unspecified),"inconclusive: 12.6 µM [quencher, side channel, partial curve]",–
CCN=C1S/C(=C\c2cn(CC)c3ccccc23)C(=O)N1CC,inactive,–
CCNC(=O)NC(=O)C(C)OC(=O)CCCSc1nc2ccccc2s1 (stereo unspecified),inactive,–
